This is an account of results in the supplement of paper PMC9446081.

The campaign covered roughly 39,000 compounds. About 220 (0.56%) showed activity. The list shows a part of the results.
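Further: static incubation at 37 °C against the wild-type strain, values averaged over two biological replicates.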

The subject of the assay is Escherichia coli K-12 BW25113. Nature of the assay: relative growth (OD600 normalised to plate interquartile mean) (fraction); higher = less growth inhibition, active = 0.2 or less. Particulars: 50 µM; LB; incubation time: overnight (16-24 h).
With `CC(C)NC(=O)Nc1ccc2c(c1)C(=O)N([C@H](C)CO)C[C@@H](C)[C@H](CN(C)C(=O)Nc1cccc3ccccc13)OCCCC[C@H](C)O2`, the relative growth was inactive: 1.01.

As for `O=C(O)CN(CCN(CC(=O)O)CC(=O)O)CCN(CC(=O)O)CC(=O)O`, the relative growth was inactive: 0.328. Then `C[C@H]1CN([C@@H](C)CO)C(=O)Cc2cc(NC(=O)C3CCCCC3)ccc2O[C@H]1CN(C)Cc1ccc(-c2ccccc2)cc1`, with inactive: 1.02; and `CCCNC(=O)N1C[C@H]2[C@@H](c3ccccc31)[C@@H](CO)N2C(=O)CN1CCOCC1`, with inactive: 1.02. Then `COc1ccc(S(=O)(=O)N(C)C[C@@H]2Oc3ccc(NC(=O)Cc4ccccc4)cc3C(=O)N([C@@H](C)CO)C[C@H]2C)cc1`, with inactive: 1.03; and `Cc1ccc(S(=O)(=O)Nc2cccc3c2O[C@H](CN(C)S(=O)(=O)c2cn(C)cn2)[C@H](C)CN([C@H](C)CO)C3=O)cc1`, with inactive: 0.997. As for `Cc1cc(C(=O)Nc2cccc3c2O[C@H](CN(C)C(=O)Nc2ccc4c(c2)OCO4)[C@@H](C)CN([C@H](C)CO)C3=O)n(C)n1`, the figure is inactive: 0.97; as for `C[C@@H]1CCCCO[C@@H](CN(C)S(=O)(=O)c2ccc(F)cc2)[C@@H](C)CN([C@H](C)CO)C(=O)c2cc(NC(=O)Nc3cccc4ccccc34)ccc2O1`, inactive: 1.01.

Take `[N-]=[N+]=Nc1ccccc1[C@@H]1OC(c2ccc(OCCCO)cc2)=N[C@]1(Cc1ccccc1)C(=O)NC[C@@H](O)CO`: the relative growth is inactive: 1.

With `CC(C)CC#Cc1ccc2c(c1)O[C@@H](CN(C)C(=O)Cc1ccccn1)[C@@H](C)CN([C@@H](C)CO)S2(=O)=O`, the relative growth is inactive: 0.999. Then `CCCCCCCCCCCCCCSCC(=O)O`, with inactive: 0.797. As for `Cc1noc(C)c1NC(=O)N(C)C[C@@H]1OCCCC[C@H](C)Oc2ccc(NC(=O)Cc3ccccc3)cc2C(=O)N([C@@H](C)CO)C[C@H]1C`, the figure is inactive: 0.995; as for `COc1ccc(NC(=O)Nc2ccc3c(c2)C(=O)N([C@@H](C)CO)C[C@@H](C)[C@@H](CN(C)CC2CC2)OCCCC[C@@H](C)O3)cc1`, inactive: 0.986. With `CC(C)[C@@H](N)c1ncnn1C`, the relative growth was inactive: 1.03. Turning to `C[C@@H]1CCCCO[C@@H](CN(C)CC2CC2)[C@H](C)CN([C@@H](C)CO)C(=O)c2cc(NC(=O)c3ccccc3)ccc2O1`, the relative growth is inactive: 1. Then `COCC(=O)N1C[C@H](C)[C@H](OC)CN(C)C(=O)c2cc(NC(=O)c3cc(C)on3)ccc2OC[C@@H]1C`, with inactive: 0.969; and `C[C@@H]1CN([C@H](C)CO)C(=O)c2cc(NC(=O)CCCCCC(=O)Nc3ccccc3N)ccc2O[C@@H]1CN(C)Cc1ccc(Cl)c(Cl)c1`, with inactive: 0.983; and `CC(C)NCC(O)COc1cccc2[nH]c3ccccc3c12` (stereo not given), with inactive: 1.09. On to `C[C@@H]1CCCCO[C@@H](CN(C)Cc2ccc(C(=O)O)cc2)[C@H](C)CN([C@H](C)CO)C(=O)c2cc(NC(=O)Nc3ccccc3)ccc2O1`, for which the relative growth is inactive: 0.997. Then `C[C@@H]1CCCCO[C@H](CN(C)Cc2ccccc2)[C@H](C)CN([C@H](C)CO)C(=O)c2cc(NC(=O)Nc3ccc4c(c3)OCO4)ccc2O1`, with inactive: 0.952; and `C[C@H](CO)N1C[C@H](C)[C@@H](CN(C)S(=O)(=O)c2ccc(Cl)cc2)Oc2c(NS(C)(=O)=O)cccc2C1=O`, with inactive: 1; and `COc1ccc(NC(=O)Nc2ccc3c(c2)CC(=O)N([C@@H](C)CO)C[C@H](C)[C@@H](CN(C)S(=O)(=O)c2c(C)noc2C)O3)cc1`, with inactive: 0.986. Then `C[C@@H]1CCCCO[C@H](CN(C)C(=O)Nc2ccc(F)cc2)[C@@H](C)CN([C@@H](C)CO)C(=O)c2cc(NS(=O)(=O)c3ccc(Cl)cc3)ccc2O1`, with inactive: 1.02; and `COc1ccc(S(=O)(=O)Nc2ccc3c(c2)CC(=O)N([C@H](C)CO)C[C@H](C)[C@H](CN(C)S(=O)(=O)c2ccc(OC)cc2)O3)cc1`, with inactive: 1; and `COc1ccc(NC(=O)Nc2ccc3c(c2)C(=O)N([C@@H](C)CO)C[C@@H](C)[C@@H](CN(C)C(=O)Nc2ccccc2)OCCCC[C@@H](C)O3)cc1`, with inactive: 1.04. As for `C[C@H]1CN([C@@H](C)CO)S(=O)(=O)c2ccc(C#CCN(C)C)cc2O[C@H]1CN(C)Cc1cccnc1`, the figure is inactive: 0.989. On to `C[C@@H]1CCCCO[C@H](CN(C)C(=O)Nc2ccc(C(F)(F)F)cc2)[C@H](C)CN([C@@H](C)CO)C(=O)c2cc(NC(=O)Nc3ccc4c(c3)OCO4)ccc2O1`, for which the relative growth is inactive: 1.05. As for `C[C@@H]1CN([C@H](C)CO)C(=O)c2cc(NC(=O)Nc3ccc4c(c3)OCO4)ccc2O[C@@H]1CN(C)Cc1ccc(C(=O)Nc2ccccc2N)cc1`, the figure is inactive: 1; as for `CN(C)CC(=O)N[C@H]1CC[C@H](CC(=O)O)O[C@@H]1CO`, inactive: 1. On to `C[C@H](CO)N1C[C@H](C)[C@H](CN(C)Cc2ccc(C(F)(F)F)cc2)OCCCC[C@H](C)Oc2ccc(NC(=O)CCCN(C)C)cc2C1=O`, for which the relative growth was inactive: 0.955.

As to `COc1cccc(-c2ccc3c(c2)O[C@@H](CN(C)C(=O)C2CC2)[C@H](C)CN([C@@H](C)CO)S3(=O)=O)c1`, the relative growth is inactive: 1.01. In the case of `Cc1ccc(S(=O)(=O)N(C)C[C@H]2OCCCC[C@@H](C)Oc3ccc(NS(C)(=O)=O)cc3C(=O)N([C@H](C)CO)C[C@@H]2C)cc1`, the relative growth was inactive: 0.995. `C[C@@H]1CN([C@@H](C)CO)C(=O)c2cc(NC(=O)C3CCCCC3)ccc2O[C@H]1CN(C)Cc1ccc(-c2ccccc2)cc1`: the relative growth is inactive: 1.01. Then `O=C(C[C@H]1CC[C@H](NC(=O)CN2CCOCC2)[C@@H](CO)O1)NCCc1ccncc1`, with inactive: 0.994; and `C[C@@H]1CN([C@@H](C)CO)C(=O)CCCn2nncc2CO[C@H]1CN(C)C(=O)Nc1ccccc1C(F)(F)F`, with inactive: 0.971. For the molecule `C[C@H](CO)N1C[C@H](C)[C@H](CN(C)C(=O)CCCN(C)C)OCc2cn(nn2)CCCC1=O`, the relative growth was inactive: 0.998. Then `CC(C)(C)[S@@](=O)N1Cc2cc(C(=O)NCCN3CCCCC3)nc(-c3cccc(-c4ccc(C#N)cc4)c3)c2[C@H]1CCO`, with inactive: 1.03; and `Cc1ccc(S(=O)(=O)N(C)C[C@@H]2Oc3ccc(NC(=O)NC(C)C)cc3C(=O)N([C@@H](C)CO)C[C@@H]2C)cc1`, with inactive: 1.01.

As to `Cc1noc(C)c1S(=O)(=O)N(C)C[C@H]1Oc2ccc(NC(=O)Cn3cnnn3)cc2CC(=O)N([C@H](C)CO)C[C@@H]1C`, the relative growth was inactive: 0.999. As for `COCC#Cc1ccc2c(c1)O[C@@H](CN(C)Cc1ccccc1F)[C@@H](C)CN([C@@H](C)CO)S2(=O)=O`, the figure is inactive: 1.02. As for `C[C@H]1CCCCO[C@@H](CN(C)Cc2ccc(C(F)(F)F)cc2)[C@@H](C)CN([C@@H](C)CO)C(=O)c2cc(NC(=O)Nc3cccc4ccccc34)ccc2O1`, the figure is inactive: 0.993; as for `COc1ccc(S(=O)(=O)Nc2cccc3c2O[C@@H](CN(C)S(=O)(=O)c2ccc(OC)cc2)[C@H](C)CN([C@@H](C)CO)C3=O)cc1`, inactive: 1.01.

`CC(C)NC(=O)Nc1ccc2c(c1)C(=O)N([C@@H](C)CO)C[C@@H](C)[C@@H](CN(C)S(=O)(=O)c1ccc(Cl)cc1)O2`: the relative growth is inactive: 1.01. Then `C[C@H]1CN([C@@H](C)CO)S(=O)(=O)c2ccc(/C=C/c3ccccc3)cc2O[C@@H]1CN(C)C(=O)Nc1cc(F)ccc1F`, with inactive: 0.993; and `COc1ccc(NC(=O)N(C)C[C@@H]2Oc3ccc(NC(=O)Nc4ccc(C(F)(F)F)cc4)cc3CC(=O)N([C@@H](C)CO)C[C@@H]2C)cc1`, with inactive: 1.02. Take `CNC(=O)Cn1c(=O)c2c(OC)c(C)cnc2n(C)c1=O`: the relative growth is inactive: 0.976. Then `NC(=O)N1CCC[C@@H]1C(=O)O`, with inactive: 1.03. As to `COc1ccc(C)cc1S(=O)(=O)NCCO`, the relative growth is inactive: 0.945. As for `COc1ccc(NC(=O)N(C)C[C@H]2OCCCC[C@@H](C)Oc3ccc(NS(=O)(=O)c4ccc(F)cc4)cc3C(=O)N([C@H](C)CO)C[C@@H]2C)cc1`, the relative growth is inactive: 1.01. Then `CC(C)NCC(O)c1cc(O)cc(O)c1` (stereo not given), with inactive: 0.847; and `C[C@H]1CN([C@@H](C)CO)S(=O)(=O)c2ccc(C#CC3CCCC3)cc2O[C@H]1CN(C)Cc1cncnc1`, with inactive: 0.993. Take `C[C@@H]1CN([C@@H](C)CO)C(=O)c2cc(NS(=O)(=O)c3cn(C)cn3)ccc2O[C@@H](C)CCCCO[C@@H]1CN(C)S(=O)(=O)c1ccccc1`: the relative growth was inactive: 0.996.

In the case of `C[C@@H]1CN([C@@H](C)CO)C(=O)Cc2cc(NC(=O)Nc3ccccc3)ccc2O[C@@H]1CN(C)Cc1ccc(C(F)(F)F)cc1`, the relative growth is inactive: 0.993.

For the molecule `CC(C)NC(=O)Nc1cccc2c1O[C@@H](CN(C)Cc1ccc(C(=O)O)cc1)[C@@H](C)CN([C@H](C)CO)C2=O`, the relative growth was inactive: 0.991.

Consider `C[C@H](CO)N1C[C@H](C)[C@H](CN(C)S(=O)(=O)c2cccs2)OCCCC[C@H](C)Oc2ccc(NC(=O)C3CCCCC3)cc2C1=O`, for which the relative growth is inactive: 1.03. Consider `O=C(O)CCCCC1CCSS1` (stereo not given), for which the relative growth was inactive: 1.11.

On to `Cc1cc(Cn2c(=O)n(Cc3cnc(C)s3)c(=O)c3cc(S(=O)(=O)NC4(C)CC4)ccc32)n(C)n1`, for which the relative growth is inactive: 0.999. Take `CC(=O)/N=c1\sc(S(N)(=O)=O)nn1C`: the relative growth was inactive: 1.01.

For `COc1cccc(-c2ccc([C@@H](Oc3cc(-c4ccc(C[C@H](N)C(=O)O)cc4)nc(N)n3)C(F)(F)F)cc2)c1`, the relative growth was inactive: 0.869.

Take `C[C@H](CO)N1C[C@H](C)[C@@H](CN(C)C(=O)Cc2ccccc2)Oc2ncc(C#CC3(O)CCCC3)cc2C1=O`: the relative growth is inactive: 0.965.
